{"source": "PubChem BioAssay AID686978", "about": "(National Center for Advancing Translational Sciences (NCATS), 2013)", "note": "Hit rate of the full screen: of about 420,000 compounds, about 64,000 (15%) were called active. The inconclusive results got no clear call from the source; some entries with a clear call stand among them for comparison. The call rests on the fitted dose curve; in most records, active means well fitted inhibition curve with a large enough effect; inconclusive means small, poorly fitted or top-dose-only effect; inactive means flat fitted curve, though single readings scatter. Potencies of inconclusive entries are left out as doubtful fits.", "data": [{"assay": "qHTS for Inhibitors of human tyrosyl-DNA phosphodiesterase 1 (TDP1): qHTS in cells in absence of CPT; further: nearly all actives have a fitted effect of over 55% in size; further: potency means the concentration at half of the fitted maximal effect; tags describe the fitted curve by direction and shape; on activity change, negative = growth inhibition: on the % scale 0 is the no-effect control and ±100 the full control effect", "details": "DT40 Tdp1-/- hTDP1 cells, no CPT, ATP luminescence, 48 h; activity change, negative = growth inhibition: at 46.2 µM (top of the series) unless noted", "in_short": "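Growth kinetics read by CellTiter-Glo luminescence after ≥48 hr at 37 °C. Cells: DT40 Tdp1-/- stably carrying human TDP1, 400 per well, compound exposure in the absence of CPT (DMSO vehicle).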", "values": [{"compound": "Cc1ccc(OCC(=O)N(Cc2ccc(N(C)C)cc2)C2CCS(=O)(=O)C2)cc1C", "note": "(configuration not stated)", "Potency": "inactive"}, {"compound": "COCCn1c(=O)c2c(nc3n2CC(C)CN3CCc2ccccc2)n(C)c1=O", "note": "(configuration not stated)", "Potency": "inconclusive [inhibitor, single point]"}, {"compound": "O=C(O)c1ccc(Cn2c(=S)[nH]c3cc(Cl)ccc3c2=O)cc1", "Potency": "inactive"}, {"compound": "COc1cccc(OC)c1NC(=O)Cc1nn(C)c(=O)c2ccccc12", "Potency": "inconclusive [inhibitor, single point]"}, {"compound": "C(=C\\c1ccccc1)/CN1CCN(C(c2cccc3ccccc23)c2nnnn2Cc2ccccc2)CC1", "note": "(configuration not stated)", "Potency": "active: 16.4 µM"}, {"compound": "CCc1ccc2c(c1)NC(=O)C2(C)Cc1ccccc1OC", "note": "(configuration not stated)", "Potency": "inconclusive [inhibitor, single point]"}, {"compound": "CSc1nc2sc3c(c2c(=O)n1-c1ccccc1)CCC(C(C)(C)C)C3", "note": "(configuration not stated)", "Potency": "active: 0.92 µM"}, {"compound": "O=S1(=O)C=C(Sc2nnc(-c3ccccc3)o2)c2ccccc21", "Potency": "active: 0.58 µM"}, {"compound": "COc1ccc(C)cc1C(=O)CCC(=O)N1CCN(c2ccccc2F)CC1", "Potency": "inactive"}, {"compound": "COc1ncnc2c1ncn2CCCN(CCCc1ccccc1)CCCn1cnc2c(OC)ncnc21", "Potency": "inconclusive [inhibitor, partial curve, poor fit]"}, {"compound": "CCCCCCCCCCCCCCCCCC(=O)OCC(C)O", "note": "(configuration not stated)", "activity change, negative = growth inhibition": "inconclusive: -33.9% [inhibitor]"}, {"compound": "CC(C)CCNc1nc(N)c([N+](=O)[O-])c(NCC2CCCO2)n1", "note": "(configuration not stated)", "Potency": "inconclusive [inhibitor, single point]"}, {"compound": "CC(=O)N1CCN(c2ccc(C(N)=O)cc2[N+](=O)[O-])CC1", "Potency": "inactive"}, {"compound": "Cn1c(NC(=O)c2ccccc2NC(=O)C(C)(C)C)nc2ccccc21", "Potency": "inconclusive [inhibitor, single point]"}, {"compound": "CCCNC(=O)CSc1nc(Cc2ccccc2)nc2ccccc12", "Potency": "inconclusive [inhibitor, single point]"}, {"compound": "CC[C@H]1c2[nH]c3ccccc3c2C[C@H]2C(=O)N(c3ccc(F)cc3)C(=O)N21", "Potency": "inconclusive [inhibitor, partial curve]"}, {"compound": "O=S1(=O)CCOC[C@H](Cc2ccccc2)N1Cc1cccc(Cl)c1", "Potency": "inactive"}, {"compound": "CC(C)C(NC(=O)c1ccc2c(c1)OCCO2)c1nc2ccccc2[nH]1", "note": "(configuration not stated)", "Potency": "inactive"}, {"compound": "CC(=O)Nc1ccc(NC(=O)C(=O)NCC(c2ccco2)N2CCc3ccccc3C2)cc1", "note": "(configuration not stated)", "Potency": "active: 20.6 µM"}, {"compound": "CCOC(=O)Nc1sc(C(=O)N(CC)CC)c(C)c1C(=O)OCC", "Potency": "inactive"}, {"compound": "C/C(=N\\Oc1cccc(F)n1)c1ccc(Cl)cc1Cl", "Potency": "inactive"}, {"compound": "CCOC(=O)c1nc(N)c(C(=O)OCC)[nH]1", "Potency": "active: 29.1 µM"}]}]}
